Data reported in patent publication US20250019414A1 (HANGZHOU SUMGEN BIOTECH, published 2025).
Each block holds one binder with its values, some of them ahead of it.

Target: T1, CD47 Protein, Human, Recombinant (ECD, His Tag), Sino Biological (human, UniProt Q08722 part only)
T1 construct: extracellular domain; Bought reagent, coated on the ELISA plate; not shown: His tag
Experiment: ELISA, CD47 ECD-His coated, anti-human IgG Fc-HRP

T1 sequence (Q08722 19-139 limits assumed): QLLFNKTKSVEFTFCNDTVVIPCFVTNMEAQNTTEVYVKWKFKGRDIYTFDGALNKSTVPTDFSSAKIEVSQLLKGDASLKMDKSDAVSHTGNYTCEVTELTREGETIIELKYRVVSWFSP

binding result: binds
B1: bifunctional fusion protein CS001 (Fc fusion)
chain: QVQLVESGGGLVQPGGSLRLSCAASGSIFNIPVMGWYRQAPGKQRELVAGISTGGTTNYGDSVKGRFTISRDNAKNTVYLQMNSLKPEDTAVYYCNVLVVSGIGSTLEVWGQGTLVTVSS[sequence of human IgG1 Fc omitted]GGGGSGGGGSELQVIQPDKSVLVAAGETATLRCTATSLLPVGPIQWFRGAGPGRQLIYNQKDGHFPRVTTASDLTKRNNMDFSINIGAITPADAGTYYCVKFRKGSPDDIEFKSGAGTELSVRAKPS
notes: also called NA3S-H1 - linker - M91N

binding result: binds
B2: bifunctional fusion protein CS002 (Fc fusion)
chain: QVQLVESGGGLVQPGGSLRLSCAASGSIFNIPVMGWYRQAPGKQRELVAGISTGGTTNYGDSVKGRFTISRDNAKNTVYLQMNSLKPEDTAVYYCNVLVVSGIGSTLEVWGQGTLVTVSS[sequence of human IgG1 Fc omitted]GGGGSGGGGSELQVIQPDKSVLVAAGETATLRCTATSLIPVGPIQWFRGAGPGRELIYNQKEGHFPRVTTVSDLTKRNNMDFSIRIGAITPADAGTYYCVKFRKGSPDDVEFKSGAGTELSVRAKPS
notes: also called NA3S-H1 - linker - 002N

binding result: binds
B3: bifunctional fusion protein CS003 (Fc fusion)
chain: QVQLVESGGGLVQPGGSLRLSCAASGSIFNIPVMGWYRQAPGKQRELVAGISTGGTTNYGDSVKGRFTISRDNAKNTVYLQMNSLKPEDTAVYYCNVLVVSGIGSTLEVWGQGTLVTVSS[sequence of human IgG1 Fc omitted]GGGGSGGGGSELQVIQPDKSVLVAAGETATLRCTATSLVPVGPIQWFRGAGPGRNLIYNSRHGHFPRVTTVSDLTKRNNMDFSIRIGAITPADAGTYYCVKFRKGSPDDVEFKSGAGTELSVRAKPS
notes: also called NA3S-H1 - linker - M5N
